No constants are given. Whether binding was seen depends on the method and setting. In cells and extracts the contact can be indirect. Some entries that bind do so weakly or less than the wild type. Blank lines part the entries; values can stand above or below the substance they belong to.
Assays:
[1] = molecular target: EGFR, endogenous in ESCC cells (human (endogenous in KYSE450 and KYSE30)) (UniProt P00533); assay: co-IP; KYSE450 and KYSE30 cells treated with 0, 25 and 50 μM dexrazoxane for 24 h; lysates immunoprecipitated with anti-EGFR overnight at 4 °C, protein A/G agarose, Western blot
[2] = molecular target: Syndecan-binding protein (SDCBP), endogenous in ESCC cells (human (endogenous in KYSE450 and KYSE30)) (UniProt O00560); assay: co-IP; KYSE450 cell lysates immunoprecipitated with anti-SDCBP, immunoblotted; cells untreated or treated with the indicated drugs at 100 μM
[3] = molecular target: Syndecan-binding protein (SDCBP), endogenous in ESCC cells (human (endogenous in KYSE450 and KYSE30)) (UniProt O00560); assay: condition: only cells treated with 100 μM dexrazoxane; co-IP; KYSE450 cells treated with 100 μM dexrazoxane; lysates immunoprecipitated with anti-SDCBP, immunoblotted
[4] = molecular target: Syndecan-binding protein (SDCBP), endogenous in ESCC cells (human (endogenous in KYSE450 and KYSE30)) (UniProt O00560); assay: condition: only cells treated with 100 μM zalcitabine; co-IP; KYSE450 cells treated with 100 μM zalcitabine; lysates immunoprecipitated with anti-SDCBP, immunoblotted
[5] = molecular target: exogenous EGFR (transfected into HEK293T cells) (UniProt P00533); assay: co-IP; HEK293T cells transfected with SDCBP and EGFR; lysates immunoprecipitated with anti-Flag or anti-HA overnight at 4 °C, protein A/G agarose, Western blot
[6] = molecular target: exogenous EGFR (transfected into HEK293T cells) (UniProt P00533); assay: condition: only cells treated with dexrazoxane (25 and 50 μM for 24 h); co-IP; HEK293T cells transfected with SDCBP and EGFR and treated with dexrazoxane (25 and 50 μM for 24 h); lysates immunoprecipitated with anti-Flag or anti-HA, Western blot

Chains of the proteins cited; added tags and fusions are not shown.
UniProt O00560: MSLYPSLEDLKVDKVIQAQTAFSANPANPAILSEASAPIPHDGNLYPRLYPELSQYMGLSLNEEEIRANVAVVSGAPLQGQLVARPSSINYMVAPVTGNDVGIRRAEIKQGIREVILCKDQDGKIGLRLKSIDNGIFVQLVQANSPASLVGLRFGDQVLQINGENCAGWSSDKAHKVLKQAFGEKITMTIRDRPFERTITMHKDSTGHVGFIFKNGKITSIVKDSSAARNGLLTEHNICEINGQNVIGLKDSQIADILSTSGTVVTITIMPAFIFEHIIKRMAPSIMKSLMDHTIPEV

binding [1]: binds
Substance: Syndecan-binding protein (SDCBP), endogenous in ESCC cells (from UniProt O00560 1-298)

binding [2]: binds | binding [3]: no binding | binding [4]: no binding
Substance: EGFR, endogenous in ESCC cells (from UniProt P00533 25-1210) (receptor)

binding [5]: binds | binding [6]: no binding
Substance: exogenous SDCBP (transfected into HEK293T cells) (from UniProt O00560 1-298)
